# B1: Recombinant His-Tagged TfR (soluble human transferrin receptor 1) (receptor)
# chain: not shown
# Target: the molecule itself
# Assay: SEC
protein,measurement,value
B1,stoichiometry N,2

# Reference: PMC3672314 (Metallomics : integrated biometal science, 2013)
